Assay results from the supplement of paper PMC12217912.
This is one part of the list. Sequences were assembled here from the parent chain. Values near 0.05 are background.

B1: TEV protease; numbered along this chain (parent)
chain: MGESLFKGPRDYNPISSSICHLTNESDGHTTSLYGIGFGPFIITNKHLFRRNNGTLVVQSLHGVFKVKDTTTLQQHLVDGRDMIIIRMPKDFPPFPQKLKFREPQREERICLVTTNFQTKSMSSMVSDTSCTFPSGDGIFWKHWIQTKDGQCGSPLVSTRDGFIVGIHSASNFTNTNNYFTSVPKNFMELLTNQEAQQWVSGWRLNADSVLWGGHKVFMVKPEEPFQPVKEATQL

Variants of: B1
Assay: raw area under fraction-flipped curve 0-4 h after induction (AUC4h, not background-subtracted), DNA-recorder readout of cleavage of the substrate (dimensionless); higher = more cleavage of the substrate by the protease variant
Conditions: temperature: 34 °C; time window: 0-4 h after rhamnose induction
Experimental: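 In vivo DNA recorder in E. coli TOP10(DE3) ΔrhaA at 34 °C. Each TEVp single-site mutant (parent TEVp 0) is paired with a single-site variant of the 7-mer TEVs (canonical ENLYFQ|S). The substrate sits between flexible linkers in a Bxb1-sfGFP-TEVs-SsrA fusion, so cleavage stabilises Bxb1 and speeds flipping of a recombination array, read by NGS. The value is the raw area under the fraction-flipped curve over 0-4 h after rhamnose induction (AUC4h), with ≥20 reads per time point. It is not background-subtracted; inactive controls average about 0.047.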
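Also: Bxb1 expression induced with 0.2% (w/v) L-rhamnose at OD600 near 0.5, cultures sampled hourly, flipped fraction per protease–substrate barcode pair counted by paired-end Illumina sequencing.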

Variant	area with substrate ENAYFQS	area with substrate ENDYFQS	area with substrate ENEYFQS	area with substrate ENFYFQS	area with substrate ENHYFQS	area with substrate ENIYFQS	area with substrate ENKYFQS	area with substrate ENRYFQS	area with substrate ENVYFQS	area with substrate ENPYFQS	area with substrate ENQYFQS	area with substrate ENSYFQS	area with substrate ENCYFQS	area with substrate ENMYFQS	area with substrate ENNYFQS	area with substrate ENTYFQS	area with substrate ENWYFQS	area with substrate ENYYFQS	area with substrate ENGYFQS
F140Q	0.0485	0.0627	0.0721	0.035	0.0644	0.0521	0.0651	0.0481	0.0581	–	–	–	–	–	–	–	–	–	–
F140Y	0.0603	0.0604	0.0741	–	–	–	–	0.0549	–	0.0538	0.0356	0.0672	–	–	–	–	–	–	–
W141E	0.0533	0.0455	0.0617	–	0.0438	–	–	–	0.0227	–	0.048	0.0576	0.0214	0.0621	0.0514	0.0583	0.0464	0.0527	–
H143F	0.0653	0.064	–	–	–	–	–	–	0.0736	0.0665	–	0.0576	0.0691	–	0.0455	0.0531	0.0069	–	0.0669
I145M	0.0618	0.0595	0.0697	0.0535	0.0566	–	–	0.0455	0.0653	0.0559	0.0476	–	0.0557	–	0.0639	0.055	–	0.0589	0.0631
Q146A	0.0782	–	–	–	0.058	–	0.0691	–	0.104	0.0568	0.045	–	–	–	0.0409	0.0504	–	–	–
Q146H	0.0585	0.0664	–	0.0683	–	0.0937	–	0.039	0.0691	0.055	0.0607	–	0.0631	–	0.0672	0.0669	0.0496	0.0615	0.0569
Q146W	0.061	–	0.0523	0.0477	0.0534	–	0.0536	0.0432	0.0961	–	0.0309	–	–	0.0702	0.0345	–	–	–	–
T147H	0.0681	0.0671	0.0543	0.0655	–	0.0662	–	0.0577	0.0674	–	0.061	0.0649	0.0665	–	–	0.0525	0.0364	–	0.0755
K148V	0.0648	0.0675	0.0625	–	0.0609	0.112	0.0662	0.0607	–	0.0577	0.0831	–	–	–	0.0484	0.0543	0.0073	–	0.0482
D149L	0.0784	0.0654	0.0571	–	0.0673	0.0833	–	–	–	0.0603	0.0886	0.0639	0.0631	–	0.0629	0.0523	–	0.052	–
G150D	0.0638	0.0692	0.0649	0.0605	0.0564	0.0581	–	–	–	–	–	0.0614	0.0745	0.0493	0.0524	0.0691	–	–	–
Q151D	0.0643	0.0672	0.0663	0.0596	0.0654	–	0.0687	0.0588	0.0867	0.0738	0.0583	0.0626	0.0645	–	–	0.0687	0.0325	–	–
C152N	0.0576	–	0.0597	0.0686	–	0.0754	0.0605	–	0.0732	0.06	0.0468	0.0608	0.0603	0.0633	0.0333	0.0685	–	0.0562	–
G153K	0.061	0.0406	0.0597	0.0497	–	–	–	–	–	0.047	0.0535	0.0281	0.052	–	–	–	–	0.0248	–
S154K	0.0552	0.0635	0.0592	–	–	–	0.0511	0.0569	0.062	0.0686	0.0564	0.0648	0.0492	0.0748	–	0.0495	–	0.0647	–
S154Y	0.0383	–	0.0677	–	–	–	0.0582	0.0561	0.0692	–	0.0563	0.0461	–	–	–	0.0709	–	–	0.0656
L156T	0.0536	–	0.0523	0.0394	0.0559	0.0886	0.0537	0.0553	0.0725	0.0597	0.0631	0.067	0.0587	0.0605	0.0588	–	0.0608	0.058	0.0635
V157P	0.0482	0.0485	0.0803	–	0.0502	0.0582	–	0.0495	0.0707	0.0447	0.0436	0.0759	0.0541	–	0.0471	–	–	–	0.0485
T159S	0.0608	0.0387	0.0856	0.0791	–	0.0827	0.067	0.0612	–	–	0.0657	0.0352	0.055	–	0.0567	–	0.0497	–	0.0607
R160L	0.0553	–	–	–	–	–	–	–	0.078	0.0525	–	0.0714	–	0.0957	0.0726	–	–	–	0.064
D161M	0.0591	0.0582	0.0428	–	–	0.0874	0.0653	0.0515	–	0.047	–	0.0619	0.0575	–	–	–	0.0403	–	0.0523
G162I	0.0545	–	0.0592	0.0571	0.0464	–	0.0589	0.0466	0.0559	–	0.0646	–	0.0589	–	–	0.0616	–	–	–
G162K	0.0589	–	0.0459	–	–	–	0.0559	0.0689	0.0626	–	0.0513	–	0.0832	–	–	0.0479	–	–	–
G162W	0.0576	0.0446	–	0.0601	0.0644	–	–	0.0544	0.0716	–	0.0599	0.0551	–	–	0.0501	0.0669	–	–	–
V165Y	0.0531	0.0535	0.0409	0.0533	0.0532	–	0.052	0.057	0.0582	0.0494	0.0466	0.0462	–	0.0577	0.0615	0.0494	–	0.0289	0.0581
I167C	0.0532	0.0588	0.057	0.0521	0.0546	–	–	–	0.0486	0.0318	0.0585	0.0622	0.0672	–	–	0.0409	–	–	0.0664
S169E	0.0553	0.0599	0.0621	0.0814	–	–	0.0433	0.0667	0.0359	0.0889	0.0551	0.0519	0.0629	0.0578	0.0483	–	–	–	0.0669
S169P	0.0571	0.0623	0.0463	–	0.0498	0.056	–	0.0437	0.0628	0.0529	0.0556	0.0557	0.066	–	0.05	–	0.0476	–	0.038
A170H	0.0538	–	0.0617	0.0868	–	–	0.0593	–	–	–	–	–	–	0.0793	–	–	–	–	0.0709
